# Molecular target: T1, N-domain of bovine ACE (N-ACE) (Bos taurus, UniProt P12820)
# T1 sequence (P12820 40-624 limits assumed): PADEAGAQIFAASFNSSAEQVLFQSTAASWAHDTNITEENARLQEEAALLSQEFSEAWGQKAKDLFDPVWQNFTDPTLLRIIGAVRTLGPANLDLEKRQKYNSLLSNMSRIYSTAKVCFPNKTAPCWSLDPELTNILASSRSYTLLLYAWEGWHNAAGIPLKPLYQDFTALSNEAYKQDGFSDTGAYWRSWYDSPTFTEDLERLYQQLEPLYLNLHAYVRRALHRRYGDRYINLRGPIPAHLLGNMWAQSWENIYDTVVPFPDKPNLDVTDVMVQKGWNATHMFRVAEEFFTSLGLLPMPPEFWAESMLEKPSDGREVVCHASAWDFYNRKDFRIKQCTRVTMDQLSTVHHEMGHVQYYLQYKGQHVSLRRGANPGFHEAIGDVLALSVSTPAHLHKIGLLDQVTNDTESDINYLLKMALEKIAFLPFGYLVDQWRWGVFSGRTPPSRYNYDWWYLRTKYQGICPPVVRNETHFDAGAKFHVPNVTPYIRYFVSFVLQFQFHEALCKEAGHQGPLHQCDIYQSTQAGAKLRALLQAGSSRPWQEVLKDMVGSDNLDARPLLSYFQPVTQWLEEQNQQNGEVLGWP
# Assay: Hydrolysis of Aβ metal-binding-domain peptides by N-ACE, products identified/quantified by MALDI-TOF MS
# Details: 40 μM peptide + 0.02 μM N-ACE, 10–40 min (ratAβ peptide: 20 μM + 0.2 μM N-ACE, 10-60 min), 50 mM NaCl, 1 μM ZnCl2, 50 mM sodium bicarbonate pH 7.8 or 25 mM barbital pH 7.4, 37 °C, ND = not detected
substance,measurement,value
Ac-DAEFGHDSGFEVRHQK-NH2 [[CH3CO]-Asp-Ala-Glu-Phe-Gly^5-His-Asp- Ser-Gly- Phe^10-Glu-Val-Arg-His-Gln^15-Lys-[NH2]],"Products observed (backbone positions), N-ACE",1–13

# Reference: article PMC5762728 (Scientific Reports, 2018)
